Results taken from ChEMBL document CHEMBL5308541, “MAIP: An Open-Source Tool to Enrich High-Throughput Screening Output and Identify Novel, Druglike Molecules with Antimalarial Activity” (ACS Med Chem Lett, 2023).
Among all 150,000 compounds or so, about 540 (0.36%) showed an effect of 50% or more. The list shows a part of the results.

The molecules below were run on Plasmodium falciparum (assay: Primary screen in NF54 nanoGlo assay, in single point, at 2uM, 72h; a lower Z score goes with more inhibition). Details: timepoint 72 hour.
Assay type: functional, Erythrocyte

What does the source list for `CCN(C[C@H]1CCN(c2ccnc(COC)n2)C1)CC(F)(F)F`?
% Inhibition: 12%; Z score: -1.82

How did the “% Inhibition” value turn out when `OCCN1CCC[C@H](NCc2cnn(-c3ccccc3)n2)C1` was run?
Its value is 5%.

What about the Z score of the same molecule?
The Z score was -0.93.

Which results are given for `CCCc1nc(-c2noc(C[C@H](C)c3ccccc3C)n2)co1`?
% Inhibition: 6%; Z score: -0.85

For `O=C(Oc1ccc(Cl)c2cccnc12)[C@H]1CCCN(S(=O)(=O)c2ccc(F)cc2)C1`, which “% Inhibition” value is on record?
The value was 8%.

What about the Z score of the same molecule?
Its Z score is -1.25.

Which results are given for `NC(=O)[C@H]1CCCN(CCCNc2cc(C(F)(F)F)nc(N3CCCC3)n2)C1`?
% Inhibition: -5%; Z score: 0.88

What does the source list for `NC(=O)c1ncn(C2CCN(c3ccnc4cc(F)ccc34)CC2)c1N`?
% Inhibition: 3%; Z score: -0.52

With `c1nc2c(c(NCCc3cn[nH]c3)n1)CCN(C[C@H]1CCCNC1)CC2` as the molecule, how does the “% Inhibition” value read?
Its value is -9%.

And the Z score?
Its Z score is 1.52.

Which “% Inhibition” value does the source give for `Cc1cc(O)c2cccc(-c3cccc(C(=O)NCCCN4CCCC4)c3)c2n1` here?
The value was -1%.

What about the Z score of the same molecule?
The Z score was 0.22.

How did the “% Inhibition” value turn out when `CCc1nccc(-c2c(-c3ccccc3)ncn2C[C@H](O)c2ccccc2)n1` was run?
Its value is 0%.

And the Z score?
The Z score was 0.04.

With `O=C(Nc1ncc(-c2cnccn2)s1)[C@@H]1CCCCN1C1CCCC1` as the molecule, how does the “% Inhibition” value read?
Its value is -2%.

And the Z score?
Its Z score is 0.46.

For `CCN=C(NCc1sccc1C)NC[C@H]1CN(C)CCN1C`, which “% Inhibition” value is on record?
Its value is 3%.

And the Z score?
The Z score was -0.65.

What does the source list for `Cc1cccc2[nH]cc(CC(=O)N(C)CCCN(C)C(=O)Cc3c[nH]c4cccc(C)c34)c12`?
% Inhibition: -6%; Z score: 1.19

Which results are given for `Cc1ccccc1[C@H](C(=O)N(Cc1c(C)nn(C)c1C)C1CC1)N(C)C`?
% Inhibition: -5%; Z score: 1.11

For `Cc1cc(N2CC3COCCC3(C(=O)O)C2)nc2ccc(F)cc12` (stereo unspecified), which “% Inhibition” value is on record?
The value was 76%.

What about the Z score of the same molecule?
The Z score was -13.26.

With `CN(C)c1nc(NC[C@H]2CC3(CCNCC3)CO2)ncc1F` as the molecule, how does the “% Inhibition” value read?
The value was 0%.

What about the Z score of the same molecule?
Its Z score is -0.08.

Which results are given for `COc1ccc(N(C)C(=O)c2cccc3[nH]ccc23)cc1F`?
% Inhibition: 9%; Z score: -1.55

How did the “% Inhibition” value turn out when `C[C@@H](c1ccc(-c2c(-c3ccccc3)ncn2CCCN(C)C)cc1)N(C)C` was run?
The value was 47%.

And the Z score?
Its Z score is -10.07.

`Cc1ccc2c(c1)c(Cn1cnc(-c3ccccc3)c1-c1cnn(C)c1)nn2C` was tested. Which “% Inhibition” value did it give?
Its value is -14%.

What about the Z score of the same molecule?
Its Z score is 2.4.

How did the “% Inhibition” value turn out when `O=c1nc(NC(c2ccccc2)c2ccccc2)cn[nH]1` was run?
The value was -4%.

What about the Z score of the same molecule?
Its Z score is 0.77.

Which results are given for `Cc1cc(N2CCc3c(cnc(C)c3-c3noc(-c4c[nH]nc4C)n3)C2)ccn1`?
% Inhibition: 6%; Z score: -1.1

With `CCNc1ccc(-c2nc3ccccc3[nH]2)cn1` as the molecule, how does the “% Inhibition” value read?
The value was -3%.

And the Z score?
Its Z score is 0.54.

How did the “% Inhibition” value turn out when `CCc1c[nH]c2ncnc(NC[C@H](O)c3cc(F)c(F)c(F)c3)c12` was run?
The value was -3%.

And the Z score?
The Z score was 0.58.

Which results are given for `C=C(C)CNc1ncnc2cc(Cl)ccc12`?
% Inhibition: -5%; Z score: 1.06

With `Cc1noc(-c2ccnc(N3CCCN(Cc4cccnc4)CC3)c2)n1` as the molecule, how does the “% Inhibition” value read?
Its value is 1%.

And the Z score?
Its Z score is -0.18.

For `CCN1CCN(c2nc3cc(OC)ccc3cc2CNCC2CC3C=CC2C32CC2)CC1` (stereo unspecified), which “% Inhibition” value is on record?
The value was -3%.

And the Z score?
Its Z score is 0.49.

What does the source list for `CC[C@H](Nc1cccc(OC)c1)C(=O)NCc1cccc2[nH]ccc12`?
% Inhibition: 3%; Z score: -0.56

Which “% Inhibition” value does the source give for `Cc1cc(C)nc(Nc2ccc(C(=O)NCCN(C)C)cc2)n1` here?
The value was -5%.

What about the Z score of the same molecule?
The Z score was 0.96.

Which “% Inhibition” value does the source give for `O=C(O)c1ccc(CN2CCN(S(=O)(=O)C3CC3)CC2)cc1Cl` here?
The value was -15%.

And the Z score?
The Z score was 2.63.

How did the “% Inhibition” value turn out when `Cc1cc(C)c(-c2c(-c3ccccc3)ncn2CC2(O)CCN(C)CC2)c(C)c1` was run?
Its value is -10%.

And the Z score?
Its Z score is 1.94.

What does the source list for `CN(CC1CCC1)c1c(C#N)cnc2c(F)c(F)c(F)cc12`?
% Inhibition: -5%; Z score: 0.9

`CN1CCN(c2c(NCCc3ccccc3)c(=O)c2=O)CC1` was tested. Which “% Inhibition” value did it give?
Its value is -4%.

And the Z score?
Its Z score is 0.74.

`O=C(c1ccc2ccnc(N3CCN(c4ccccc4)CC3)c2c1)N1CCC(N2CCCCC2)CC1` was tested. Which “% Inhibition” value did it give?
The value was -10%.

What about the Z score of the same molecule?
The Z score was 1.7.

Which “% Inhibition” value does the source give for `COCCN1CC2CCC1CN(S(=O)(=O)c1cccc(C#N)c1)C2` (stereo unspecified) here?
The value was -4%.

And the Z score?
The Z score was 0.73.

Which results are given for `Cc1ccc2nccc(N3CCC(N4CCC(O)CC4)CC3)c2c1`?
% Inhibition: 22%; Z score: -4.29

`COC(=O)c1cc(Nc2ccc(OCc3ccccc3)cc2)c2cccc(F)c2n1` was tested. Which “% Inhibition” value did it give?
The value was 10%.

What about the Z score of the same molecule?
Its Z score is -1.48.

Which results are given for `O=C(NCc1cncc(-c2ccsc2)c1)c1cc2ccccc2[nH]1`?
% Inhibition: 2%; Z score: -0.37

What does the source list for `CC(C)OC[C@@H](O)CN1CCN(Cc2nc(C(=O)N3CCN(C4CCCC4)CC3)co2)CC1`?
% Inhibition: -5%; Z score: 0.94

For `COCCOc1ccc(-c2ccc(CN3CCNCC3)cc2)cn1`, which “% Inhibition” value is on record?
The value was 1%.

What about the Z score of the same molecule?
The Z score was -0.11.

What does the source list for `Cc1cnccc1N1CCCN(Cc2ccccc2OCCN2CCN(C)CC2)CC1`?
% Inhibition: 96%; Z score: -19.05

For `CO[C@H]1CCCN(c2ccc(NC(=O)c3cc4ccccc4[nH]3)cc2)C1`, which “% Inhibition” value is on record?
Its value is -4%.

And the Z score?
Its Z score is 0.67.

For `COCCNc1nc(NC(C)CN2CCOCC2)nc(NC(C)CN2CCOCC2)n1` (stereo unspecified), which “% Inhibition” value is on record?
The value was 0%.

And the Z score?
Its Z score is 0.07.

Which results are given for `O=C(NCCN1CCNCC1)c1cccc(-c2cc(Cl)ccc2F)c1`?
% Inhibition: -8%; Z score: 1.7

With `C[C@H]1CN(c2ccc(CNC(=O)N3CCC(c4c[nH]c5ccccc45)CC3)cn2)CCO1` as the molecule, how does the “% Inhibition” value read?
The value was 3%.

And the Z score?
The Z score was -0.51.

For `O=C(O)c1ccccc1C1CCN(C(=O)[C@]2(C(=O)O)CCCO2)CC1`, which “% Inhibition” value is on record?
The value was -3%.

And the Z score?
Its Z score is 0.48.

How did the “% Inhibition” value turn out when `CCCCc1ccnc(NS(=O)(=O)Cc2ccc(C#N)cc2)n1` was run?
Its value is -6%.

And the Z score?
The Z score was 0.96.

What does the source list for `CC(C)(C)OC(=O)N1CCC(CNC[C@H]2CCN(CC(F)(F)F)C2)CC1`?
% Inhibition: -8%; Z score: 1.61

For `CCOc1ccc(Nc2cc(-c3ccccc3)c(-c3ccccc3)nn2)cc1`, which “% Inhibition” value is on record?
The value was -1%.

What about the Z score of the same molecule?
Its Z score is 0.23.

What does the source list for `CN(CCN1CCCCCC1)C(=O)c1cccc(-c2ccncc2F)c1`?
% Inhibition: -3%; Z score: 0.73

With `CN(C)Cc1ccc(N2CCN(C3CCC(C(=O)OC(C)(C)C)CC3)CC2)nc1` (stereo unspecified) as the molecule, how does the “% Inhibition” value read?
The value was -5%.

And the Z score?
Its Z score is 0.86.

For `CN1CCC(Cc2noc(-c3ccc(CN4CCN(C)CC4)o3)n2)CC1`, which “% Inhibition” value is on record?
The value was -9%.

And the Z score?
The Z score was 1.81.

How did the “% Inhibition” value turn out when `N#Cc1ccc2[nH]c(-c3ccccc3OCCN3CCCCC3)nc2c1` was run?
Its value is -6%.

What about the Z score of the same molecule?
Its Z score is 0.98.

`FC(F)CN1CCC(Nc2cccc(CN3CCOCC3)c2)CC1` was tested. Which “% Inhibition” value did it give?
The value was -8%.

What about the Z score of the same molecule?
The Z score was 1.4.

With `CCc1cc(=O)[nH]c(-c2ccc(NC3CCN(c4nccs4)CC3)nc2)n1` as the molecule, how does the “% Inhibition” value read?
Its value is -6%.

And the Z score?
The Z score was 1.34.
